Data on 24 compounds can be found in publication PMC4336329 (PLoS ONE, 2015).

Structures are written as SMILES. Hit rate of the full screen: of about 310,000 compounds, about 2,200 (0.71%) showed an effect of 50% or more. Effects have a minus sign here. The list shows a part of the results.

The target in the experiment is human ether-à-go-go-related gene (hERG) potassium channel (human, UniProt Q12809). As to the kind of experiment: primary screen, population patch clamp on CHO cells stably expressing hERG.
Chain of human ether-à-go-go-related gene (hERG) potassium channel (Q12809 whole entry, looked up): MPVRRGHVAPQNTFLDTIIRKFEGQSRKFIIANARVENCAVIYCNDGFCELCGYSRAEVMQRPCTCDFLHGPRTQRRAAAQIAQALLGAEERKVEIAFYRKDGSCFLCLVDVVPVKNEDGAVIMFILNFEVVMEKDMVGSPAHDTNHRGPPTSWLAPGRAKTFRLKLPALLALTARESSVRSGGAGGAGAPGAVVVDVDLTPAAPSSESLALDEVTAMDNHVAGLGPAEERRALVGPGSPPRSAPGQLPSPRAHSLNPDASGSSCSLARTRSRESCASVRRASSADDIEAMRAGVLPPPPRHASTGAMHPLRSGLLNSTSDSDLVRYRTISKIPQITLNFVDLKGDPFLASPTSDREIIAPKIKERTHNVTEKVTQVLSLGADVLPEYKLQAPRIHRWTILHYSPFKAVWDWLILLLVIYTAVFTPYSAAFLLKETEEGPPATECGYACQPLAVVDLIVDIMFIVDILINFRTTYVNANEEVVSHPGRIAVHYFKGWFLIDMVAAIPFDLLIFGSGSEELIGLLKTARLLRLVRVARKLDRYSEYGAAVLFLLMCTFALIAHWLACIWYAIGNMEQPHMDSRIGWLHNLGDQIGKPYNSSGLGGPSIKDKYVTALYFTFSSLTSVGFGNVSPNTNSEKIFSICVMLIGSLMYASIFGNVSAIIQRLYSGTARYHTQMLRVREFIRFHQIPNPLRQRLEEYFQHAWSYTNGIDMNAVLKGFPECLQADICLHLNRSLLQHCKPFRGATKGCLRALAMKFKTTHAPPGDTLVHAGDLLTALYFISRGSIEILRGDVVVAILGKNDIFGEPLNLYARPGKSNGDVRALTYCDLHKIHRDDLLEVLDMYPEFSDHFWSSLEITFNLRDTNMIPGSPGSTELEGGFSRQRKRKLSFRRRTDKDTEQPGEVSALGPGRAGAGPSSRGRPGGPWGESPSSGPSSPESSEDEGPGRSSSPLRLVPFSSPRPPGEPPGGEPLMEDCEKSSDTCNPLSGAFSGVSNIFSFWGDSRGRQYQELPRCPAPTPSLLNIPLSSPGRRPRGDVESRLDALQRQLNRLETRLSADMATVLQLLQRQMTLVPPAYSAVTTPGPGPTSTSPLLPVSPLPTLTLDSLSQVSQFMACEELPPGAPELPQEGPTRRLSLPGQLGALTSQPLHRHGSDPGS
For `CCc1ccc2nc(N(CCN(C)C)C(=O)c3ccc4ncsc4c3)sc2c1.Cl`, the “hERG current change (%, negative = inhibition) at 1uM” value was -20.7%.

For the compound `CCNC(=O)CC1C(=O)N(c2ccc(F)cc2)C(=S)N1CCc1ccncc1` (stereo not drawn), the “hERG current change (%, negative = inhibition) at 1uM” value is on record as -4.91%.

Take `O=c1[nH]c2ccc(S(=O)(=O)N3CCN(c4ccccc4)CC3)cc2[nH]c1=O`: the “hERG current change (%, negative = inhibition) at 1uM” value was 4.03%.

As for `Cc1cc(C(=O)NNC(=S)NCc2ccco2)n(C)n1.c1ccccc1`, the “hERG current change (%, negative = inhibition) at 1uM” value was found to be 13.4%.

With `Fc1ccc(-c2ccnn2-c2ccccc2)cc1`, the “hERG current change (%, negative = inhibition) at 1uM” value is 17.1%.

As for `Cn1ncc(C#N)c1/N=C/N1CCCCC1`, the “hERG current change (%, negative = inhibition) at 1uM” value is recorded as 16.3%.

Regarding `CC(C)(C)c1ccc(C(=O)OC/C(O)=C(\C#N)c2nc3ccccc3s2)cc1`, the “hERG current change (%, negative = inhibition) at 1uM” value is given as 9.43%.

As for `CC(=O)c1c(C)oc2c1cc(O)c1ccccc12`, the “hERG current change (%, negative = inhibition) at 1uM” value came out at 8.77%.

Take `COc1ccc(CNC(=O)CCNS(=O)(=O)c2cccc3nsnc23)cc1`: the “hERG current change (%, negative = inhibition) at 1uM” value was found to be 2.37%.

Consider `COc1ccc(N=C2SC(C(=O)Nc3ccc(OC)cc3)CC(=O)N2CCN2CCOCC2)cc1` (stereo not drawn), for which the “hERG current change (%, negative = inhibition) at 1uM” value was -0.767%.

Take `COC(=O)c1cc(S(=O)(=O)NCc2cc(OC)c(OC)c(OC)c2)cn1C`: the “hERG current change (%, negative = inhibition) at 1uM” value worked out at 11.7%.

As for `CN(CCc1ccccn1)C(=O)CCC1CCCN(C(=O)c2ccsc2)C1` (stereo not drawn), the “hERG current change (%, negative = inhibition) at 1uM” value came out at 6.68%.

Take `Cc1ccc(-n2[nH]c(C)c(C=Nc3ccc(S(=O)(=O)Nc4nc(C)cc(C)n4)cc3)c2=O)c(C)c1`: the “hERG current change (%, negative = inhibition) at 1uM” value is listed as 8.63%.

With `Cc1ccnc(SCc2cc(=O)c(OC(=O)c3ccc(S(=O)(=O)N(C)C)cc3)co2)n1`, the “hERG current change (%, negative = inhibition) at 1uM” value turned out to be 0.257%.

On to `CCN(CC)c1ccc(NC(=O)COc2ccccc2C#N)cc1S(=O)(=O)Nc1ccccc1OC`, for which the “hERG current change (%, negative = inhibition) at 1uM” value is 5.28%.

With `CCN1CCN(c2ccc(S(=O)(=O)N3CCCCC3)cc2NC(=O)/C=C/c2ccc(OC)c(OC)c2)CC1`, the “hERG current change (%, negative = inhibition) at 1uM” value is -10%.

For `NS(=O)(=O)c1ccc(CCNC(=O)/C=C/c2ccc([N+](=O)[O-])cc2)cc1`, the “hERG current change (%, negative = inhibition) at 1uM” value is recorded as -12.2%.

In the case of `COc1ccc(CNC(=O)c2ccc(Br)o2)cc1`, the “hERG current change (%, negative = inhibition) at 1uM” value is recorded as 10.4%.

Turning to `Cn1nc(SCC(=O)O)sc1=S`, the “hERG current change (%, negative = inhibition) at 1uM” value came to 7.24%.

With `CCCCn1nnnc1SCC(=O)NNC(=O)C1CCCCC1`, the “hERG current change (%, negative = inhibition) at 1uM” value was determined as 3.37%.

On to `CSCCC(NC(=O)COc1ccccc1)C(=O)N1CC(C)OC(C)C1` (stereo not drawn), for which the “hERG current change (%, negative = inhibition) at 1uM” value was determined as 10.5%.

As to `Cc1ccc(CNc2cc(C(=O)O)ccc2Cl)s1`, the “hERG current change (%, negative = inhibition) at 1uM” value was 12.5%.

As to `CCOc1cc(C2C(C#N)=C(N)SC(N)=C2C#N)ccc1OCCN1CCOCC1`, the “hERG current change (%, negative = inhibition) at 1uM” value is given as 3.1%.

With `CCCCSC1=NN1c1nc(N)nc(C)c1CC`, the “hERG current change (%, negative = inhibition) at 1uM” value is -7.53%.
